Reference: the BET-seq Pho4 binding data (Le et al. 2018)
The list shows a part of the results. The energies were worked out here from pooled read counts, against the library average; single values are noisy.

target: T1, Pho4 (S. cerevisiae) (UniProt P07270); test: relative binding free energy (BET-seq); higher = weaker binding; conditions: reference: library average
T1 sequence: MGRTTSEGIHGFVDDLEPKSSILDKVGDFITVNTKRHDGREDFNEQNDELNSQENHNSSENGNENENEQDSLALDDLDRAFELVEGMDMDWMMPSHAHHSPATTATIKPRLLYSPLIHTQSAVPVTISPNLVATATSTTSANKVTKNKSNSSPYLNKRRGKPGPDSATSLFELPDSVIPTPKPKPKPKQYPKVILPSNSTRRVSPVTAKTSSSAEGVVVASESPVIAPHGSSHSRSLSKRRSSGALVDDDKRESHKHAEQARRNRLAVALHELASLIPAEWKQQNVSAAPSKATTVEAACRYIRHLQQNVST

Sequence | relative binding free energy
AATTACACGTGTATAT | 0.13 kcal/mol
ACTGTCACGTGAATGG | 0.31 kcal/mol
TGTTCCACGTGGGTGT | -0.05 kcal/mol
TCTGGCACGTGTTCGG | -0.11 kcal/mol
TTGTACACGTGGGTCA | -0.1 kcal/mol
ATATGCACGTGAATTG | 0.06 kcal/mol
ATCGTCACGTGCTGGT | -0.05 kcal/mol
TTTTACACGTGTTAAG | 0.19 kcal/mol
GATAACACGTGTTGGG | 0.11 kcal/mol
TGTATCACGTGGAAAG | 0.26 kcal/mol
GAGGACACGTGATGTG | 0.09 kcal/mol
TGATACACGTGGTAGT | -0.11 kcal/mol
TATGACACGTGGAATT | 0.25 kcal/mol
GATATCACGTGGAAGT | 0.35 kcal/mol
GGTTACACGTGGAGAA | 0.18 kcal/mol
CGTGGCACGTGGCAGG | -0.1 kcal/mol
GTAGGCACGTGTAGCT | 0 kcal/mol
AGAAACACGTGTAGGG | -0.04 kcal/mol
TGTTACACGTGATGCT | 0.22 kcal/mol
TGGGGCACGTGCATAT | -0.28 kcal/mol
GAATTCACGTGGTCGG | 0.33 kcal/mol
GGGACCACGTGTATTG | 0.23 kcal/mol
GGTTTCACGTGTCATT | 0.24 kcal/mol
GCTGGCACGTGATAGG | -0.03 kcal/mol
TGTGCCACGTGCGGTG | -0.16 kcal/mol
TGTGGCACGTGGTATG | -0.1 kcal/mol

Sequence | relative binding free energy
TGGATCACGTGGTGTA | 0.17 kcal/mol
GTAAACACGTGGATTT | 0 kcal/mol
TGCGCCACGTGGGTCG | -0.1 kcal/mol
GAGCGCACGTGTGGTT | -0.11 kcal/mol
TGGCTCACGTGTCTAT | 0.34 kcal/mol
GTGCGCACGTGGGAGA | -0.24 kcal/mol
TGGCGCACGTGGTATG | -0.24 kcal/mol
GTTGTCACGTGGGGAT | 0.17 kcal/mol
AGTAGCACGTGAAATT | 0.27 kcal/mol
TGATACACGTGCAGTG | -0.08 kcal/mol
TTACTCACGTGGAGGG | 0.15 kcal/mol
TAGTTCACGTGGGAGA | 0.29 kcal/mol
GGAGTCACGTGAGTGG | 0.41 kcal/mol
TTGTTCACGTGGGGAC | 0.05 kcal/mol
TTGGCCACGTGCGTTG | -0.16 kcal/mol
CTGGTCACGTGTTCTT | 0.08 kcal/mol
ATAGACACGTGGGGAT | -0.07 kcal/mol
AGTGGCACGTGGCTGT | -0.1 kcal/mol
GGGTGCACGTGGGGGC | -0.03 kcal/mol
TTGATCACGTGTATTG | 0.1 kcal/mol
CGTTGCACGTGGAGTG | 0.06 kcal/mol
GTTATCACGTGCGGGA | 0.16 kcal/mol
TAGCTCACGTGGTCGT | 0.22 kcal/mol
AGAGACACGTGGGCGT | -0.09 kcal/mol
CGTGTCACGTGTAAGT | 0.23 kcal/mol
TGGTTCACGTGAAATG | 0.39 kcal/mol

Sequence | relative binding free energy
ATTAACACGTGTGTGG | 0.08 kcal/mol
GCGGGCACGTGGCCGG | -0.25 kcal/mol
ATGTACACGTGCGGAT | 0.13 kcal/mol
GCTTGCACGTGATAGT | 0 kcal/mol
CTTGACACGTGGGGGC | -0.2 kcal/mol
TAATTCACGTGGCGGG | 0.06 kcal/mol
GGTGCCACGTGGGTAA | -0.13 kcal/mol
GGGTCCACGTGAGGTT | 0.4 kcal/mol
GCTGTCACGTGTGTGT | 0.05 kcal/mol
TTAAGCACGTGGGCGT | -0.26 kcal/mol
GGGGACACGTGTCCGG | 0.16 kcal/mol
CTTGTCACGTGAAAAT | 0.38 kcal/mol
TGTTGCACGTGGGGCG | -0.06 kcal/mol
TGACGCACGTGGTGAG | -0.31 kcal/mol
TTAAGCACGTGGTCTA | -0.15 kcal/mol
ATTATCACGTGTTAGT | 0.11 kcal/mol
GGAGTCACGTGAAGTG | 0.36 kcal/mol
TAAGTCACGTGGGTTC | -0.05 kcal/mol
CGTGACACGTGGGGAG | -0.11 kcal/mol
ATGATCACGTGCTGGG | 0.15 kcal/mol
TGTATCACGTGTGTAA | 0.17 kcal/mol
AGTAACACGTGAATTG | 0.19 kcal/mol
AGAATCACGTGATAGG | 0.33 kcal/mol
ATGGGCACGTGACCGG | -0.19 kcal/mol
GGGCGCACGTGGTTAA | -0.04 kcal/mol
CGTGACACGTGTAGAG | -0.01 kcal/mol

Sequence | relative binding free energy
GTGAGCACGTGCGGAT | -0.1 kcal/mol
TGGTCCACGTGTAATG | 0.03 kcal/mol
TGGTCCACGTGTGTTA | 0.04 kcal/mol
CGGTGCACGTGAGGGC | 0.17 kcal/mol
TGGAACACGTGGGTGA | 0.04 kcal/mol
ATTGACACGTGGTATA | -0.07 kcal/mol
TGACACACGTGTTGGG | 0.05 kcal/mol
TTAGTCACGTGGATAA | 0.04 kcal/mol
CTATTCACGTGGGAGT | 0.22 kcal/mol
TTTTTCACGTGGACGA | 0.22 kcal/mol
ATTTGCACGTGTAGAT | 0.25 kcal/mol
ATTGGCACGTGTGAAG | 0 kcal/mol
CGCGGCACGTGGGGCT | -0.25 kcal/mol
GTAACCACGTGGTGTA | 0.05 kcal/mol
ACTTTCACGTGTGTTT | 0.15 kcal/mol
CGGGTCACGTGTGTCA | 0.09 kcal/mol
GTGGGCACGTGCCGTG | -0.21 kcal/mol
GGGAGCACGTGCTGAG | -0.18 kcal/mol
GGGTGCACGTGAAGGT | 0.25 kcal/mol
TTTCACACGTGGGGAT | 0.05 kcal/mol
CCGAGCACGTGTGTGG | 0 kcal/mol
GATCTCACGTGTATGT | 0.2 kcal/mol
GTTGTCACGTGGTTAC | 0.16 kcal/mol
GTGGGCACGTGCTGGT | -0.15 kcal/mol
GATTTCACGTGTTGTG | 0.26 kcal/mol
TGGTTCACGTGTAACA | 0.3 kcal/mol

Sequence | relative binding free energy
GAAGTCACGTGGTAGT | 0.07 kcal/mol
AGCTGCACGTGGGGCT | -0.21 kcal/mol
TAATGCACGTGTTAGT | -0.06 kcal/mol
GATCTCACGTGTGGAT | 0.3 kcal/mol
CGGGCCACGTGGCGGA | -0.16 kcal/mol
GGTAGCACGTGCTGGA | -0.09 kcal/mol
TGTAGCACGTGCGAAG | -0.08 kcal/mol
ACCTTCACGTGGGGGT | 0.06 kcal/mol
GGGGACACGTGTATCG | 0.04 kcal/mol
CTGTGCACGTGATATT | 0.11 kcal/mol
ACGTGCACGTGTAGGA | -0.02 kcal/mol
TAACGCACGTGGGAGG | -0.3 kcal/mol
TATAGCACGTGTAAGA | 0.09 kcal/mol
TGGCTCACGTGTTTAG | 0.29 kcal/mol
AGGGGCACGTGGAGGG | -0.14 kcal/mol
ATGTGCACGTGTTGTA | 0 kcal/mol
TGGTACACGTGTATGT | 0.1 kcal/mol
GGGTGCACGTGGCCGT | -0.09 kcal/mol
TAATTCACGTGTGGAT | 0.26 kcal/mol
GTCGGCACGTGTGTGA | 0.04 kcal/mol
TTTGACACGTGGAATG | 0.15 kcal/mol
TCTATCACGTGTTGCG | 0.25 kcal/mol
TTTAGCACGTGGGGGA | -0.21 kcal/mol
TGATGCACGTGGGGGA | -0.13 kcal/mol
TTAATCACGTGGAGAG | 0.15 kcal/mol
TAAATCACGTGTTGTT | 0.02 kcal/mol

Sequence | relative binding free energy
TCGTACACGTGATGAT | 0.32 kcal/mol
TGACGCACGTGAGTTG | 0.12 kcal/mol
TTTCTCACGTGGGTAA | 0.2 kcal/mol
AATCACACGTGGTAGT | 0.14 kcal/mol
ACGAGCACGTGTATGG | -0.02 kcal/mol
GGAAGCACGTGCTTGT | -0.03 kcal/mol
TATTACACGTGGGGTA | -0.13 kcal/mol
GAGATCACGTGTTTAG | 0.23 kcal/mol
ACTGGCACGTGGGTTA | -0.21 kcal/mol
GGGGGCACGTGTGCGG | -0.04 kcal/mol
GATAGCACGTGTTTCT | -0.03 kcal/mol
TCATGCACGTGCTGGG | -0.15 kcal/mol
ATAGGCACGTGAGGAT | 0.12 kcal/mol
AAGTACACGTGGGGTT | -0.05 kcal/mol
GGCATCACGTGTTGGG | 0.19 kcal/mol
TGAATCACGTGAATGT | 0.43 kcal/mol
AATTTCACGTGTTACT | 0.29 kcal/mol
TGGTCCACGTGTGTAA | 0.07 kcal/mol
GTTTTCACGTGGTCGC | 0.24 kcal/mol
TCTTGCACGTGTAGGA | 0.08 kcal/mol
TATATCACGTGCAGGG | -0.06 kcal/mol
GTTGGCACGTGCGATA | -0.06 kcal/mol
CTAGGCACGTGGTTGT | -0.1 kcal/mol
CAATGCACGTGTGGTA | -0.01 kcal/mol
ACAGTCACGTGGGTAG | -0.17 kcal/mol
GTTTTCACGTGGTATT | 0.24 kcal/mol

Sequence | relative binding free energy
ATGCGCACGTGTGTCG | -0.12 kcal/mol
TTTATCACGTGGTGCA | -0.08 kcal/mol
AAAGGCACGTGTGTGC | -0.07 kcal/mol
GGGTCCACGTGAGTTG | 0.26 kcal/mol
ATGTGCACGTGTAATT | 0.01 kcal/mol
GCTTGCACGTGTTGTG | 0.16 kcal/mol
GTTGTCACGTGAGCGT | 0.28 kcal/mol
TTTCGCACGTGTATGA | 0.14 kcal/mol
CATGTCACGTGTTAGT | 0.14 kcal/mol
GAGTCCACGTGGGCGT | 0.09 kcal/mol
TTAGTCACGTGTTGCA | -0.02 kcal/mol
ATATTCACGTGGGCAT | 0.06 kcal/mol
AGGATCACGTGTGTTG | 0.17 kcal/mol
TGTTACACGTGGGTCT | -0.05 kcal/mol
GGGTCCACGTGTGGTG | 0.07 kcal/mol
GTTAGCACGTGGAATA | 0.19 kcal/mol
TTGCACACGTGGTATG | -0.22 kcal/mol
CTAGACACGTGTAGGG | 0.01 kcal/mol
GGTGTCACGTGGGCGG | -0.01 kcal/mol
GGGTGCACGTGGTGGG | -0.03 kcal/mol
TGTTCCACGTGTTGGT | 0.03 kcal/mol
GGGGTCACGTGAGAGG | 0.34 kcal/mol
GGACGCACGTGTGTGT | 0.07 kcal/mol
GGACACACGTGGGTCG | 0.09 kcal/mol
GCGTGCACGTGCTGTT | -0.04 kcal/mol
TTGACCACGTGAGTTG | 0.3 kcal/mol

Sequence | relative binding free energy
GGGGACACGTGCGTTG | -0.02 kcal/mol
TGGAGCACGTGACGGG | 0.03 kcal/mol
TTTTTCACGTGTGCGC | 0.25 kcal/mol
GCATTCACGTGGCGGG | 0.25 kcal/mol
CGGTACACGTGGGAGG | -0.13 kcal/mol
CGAATCACGTGTGTAT | 0.21 kcal/mol
ATAGACACGTGATAGG | 0.07 kcal/mol
CTGCGCACGTGAATGG | 0.33 kcal/mol
GTTGTCACGTGGCGCG | 0 kcal/mol
GAATTCACGTGAGTTT | 0.44 kcal/mol
TTGCGCACGTGATGTC | 0.08 kcal/mol
ATTTGCACGTGGAAGA | -0.06 kcal/mol
AGGTTCACGTGGTACT | 0.17 kcal/mol
GCGTGCACGTGGTGCA | -0.11 kcal/mol
GGTATCACGTGTAACT | 0.29 kcal/mol
GTTATCACGTGGTGCG | 0.2 kcal/mol
GCGGGCACGTGTTTGG | -0.14 kcal/mol
AAAGTCACGTGGTCGG | 0.03 kcal/mol
GATGTCACGTGTTATT | 0.2 kcal/mol
CGTAGCACGTGGTCTT | -0.08 kcal/mol
GTGGGCACGTGGCTAT | -0.1 kcal/mol
GTTTACACGTGGCGTA | 0.11 kcal/mol
GGGAACACGTGTAGTA | 0 kcal/mol
CGCGCCACGTGGGGTG | -0.28 kcal/mol
GTGGACACGTGGTGTG | 0.03 kcal/mol
TTCTACACGTGGTAAT | 0.21 kcal/mol

Sequence | relative binding free energy
GTTGTCACGTGAGGCA | 0.29 kcal/mol
ATGGGCACGTGATTGA | -0.1 kcal/mol
CGGTGCACGTGGCGGG | -0.22 kcal/mol
TTCAGCACGTGTTTAG | -0.08 kcal/mol
AGGTACACGTGTTTAG | 0.06 kcal/mol
CGGGACACGTGGATGT | -0.01 kcal/mol
TCGATCACGTGGGGTA | -0.18 kcal/mol
TGAAGCACGTGACTGG | 0.06 kcal/mol
CTGAGCACGTGAGTGT | 0.22 kcal/mol
CGTAACACGTGGGGAG | -0.16 kcal/mol
CGTCGCACGTGAGTGG | 0 kcal/mol
CGGGGCACGTGATTTA | -0.01 kcal/mol
ATGGTCACGTGGAGCT | -0.02 kcal/mol
TTCATCACGTGAGTAT | 0.4 kcal/mol
TTGTTCACGTGATAGT | 0.35 kcal/mol
TTGGCCACGTGGATTA | 0.01 kcal/mol
AGTGTCACGTGGACTG | 0.08 kcal/mol
TGCTACACGTGGGTTT | 0.11 kcal/mol
ATATCCACGTGAGGGG | 0.15 kcal/mol
AGGGTCACGTGAGTAT | 0.43 kcal/mol
TTGGCCACGTGCGGTG | -0.22 kcal/mol
TAGGACACGTGGTTGA | -0.07 kcal/mol
